Test results reported in the supplement of paper PMC4604168 (melanoma cell lines).
Some of the results follow. Single values are uncertain, as repeats are few or missing.

Key:
Test in all cases: cell count relative to DMSO control; melanoma cells; higher = more viable cells
Conditions in all cases: library dose: standard library concentration; 72 h
[1] = test system: A101D
[2] = test system: A2058
[3] = test system: A375
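Note: cells treated in 1,536-well plates, then fixed and DAPI-stained, with nuclei counted from automated high-throughput microscope images.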

Compound | cell count [1] [%] | cell count [2] [%] | cell count [3] [%]
C[C@]12O[C@H](C[C@]1(O)CO)n1c3ccccc3c3c4c(c5c6ccccc6n2c5c31)CNC4=O [Lestaurtinib] + CN1CCN(c2ccc3nc(-c4c(N)c5c(F)cccc5[nH]c4=O)[nH]c3c2)CC1 [Dovitinib] (first compound 0.02 µM, partner dose 0.5 µM) | 58.6 | 19 | 71.8
N.N.[Cl][Pt][Cl] [cisplatin] + Nc1ccn([C@@H]2O[C@H](CO)[C@@H](O)C2(F)F)c(=O)n1 [gemcitabine] (first compound 8 µM, partner dose 0.002 µM) | 85.5 | 65.6 | 57.5
C[C@]12O[C@H](C[C@]1(O)CO)n1c3ccccc3c3c4c(c5c6ccccc6n2c5c31)CNC4=O [Lestaurtinib] + C=C(c1ccc(C(=O)O)cc1)c1cc2c(cc1C)C(C)(C)CCC2(C)C [Bexarotene] (first compound 0.02 µM, partner dose 10 µM) | 78.4 | 114 | 87
Cn1cc(C2=C(c3cn(C4CCN(Cc5ccccn5)CC4)c4ccccc34)C(=O)NC2=O)c2ccccc21 [Enzastaurin] + Cc1nc(Nc2ncc(C(=O)Nc3c(C)cccc3Cl)s2)cc(N2CCN(CCO)CC2)n1 [dasatanib] (first compound 4 µM, partner dose 0.02 µM) | 12.5 | 69.5 | 61
Cn1cc(C2=C(c3cn(C4CCN(Cc5ccccn5)CC4)c4ccccc34)C(=O)NC2=O)c2ccccc21 [Enzastaurin] + C=CCNC1=C2C[C@@H](C)C[C@H](OC)[C@H](O)[C@@H](C)/C=C(\C)[C@H](OC(N)=O)[C@@H](OC)/C=C\C=C(/C)C(=O)NC(=CC1=O)C2=O [Tanespimycin] (first compound 4 µM, partner dose 0.01 µM) | 44.3 | 68.5 | 64.8
C[C@]12O[C@H](C[C@]1(O)CO)n1c3ccccc3c3c4c(c5c6ccccc6n2c5c31)CNC4=O [Lestaurtinib] + Nc1cccc2c1CN(C1CCC(=O)NC1=O)C2=O [lenalidomide] (first compound 0.02 µM, partner dose 5 µM) | 74.2 | 90.7 | 108
N.N.[Cl][Pt][Cl] [cisplatin] + COc1ccc(Cl)c(Nc2nc3ccccc3nc2NS(=O)(=O)c2cccc(NC(=O)C(C)(C)N)c2)c1 [XL147] (first compound 8 µM, partner dose 4 µM) | 71.2 | 112 | 87.3
C[C@]12O[C@H](C[C@]1(O)CO)n1c3ccccc3c3c4c(c5c6ccccc6n2c5c31)CNC4=O [Lestaurtinib] + Cn1c(=O)n(-c2ccc(C(C)(C)C#N)cc2)c2c3cc(-c4cnc5ccccc5c4)ccc3ncc21 [NVP-BEZ235] (first compound 0.02 µM, partner dose 0.02 µM) | 70.9 | 63.4 | 61.5
C[As](C)SC[C@H](NC(=O)CC[C@H](N)C(=O)O)C(=O)NCC(=O)O [Darinaparsin] + COc1cc2c(Oc3ccc4[nH]c(C)cc4c3F)ncnc2cc1OCCCN1CCCC1 [cediranib] (first compound 2 µM, partner dose 2 µM) | 99.1 | 132 | 108
Cn1cc(C2=C(c3cn(C4CCN(Cc5ccccn5)CC4)c4ccccc34)C(=O)NC2=O)c2ccccc21 [Enzastaurin] + Cn1c(Nc2ccc(C(F)(F)F)cc2)nc2cc(Oc3ccnc(-c4ncc(C(F)(F)F)[nH]4)c3)ccc21 [CHIR265] (first compound 4 µM, partner dose 0.4 µM) | 60.5 | 74.3 | 86.1
Cn1cc(C2=C(c3cn(C4CCN(Cc5ccccn5)CC4)c4ccccc34)C(=O)NC2=O)c2ccccc21 [Enzastaurin] + C#Cc1cccc(Nc2ncnc3cc(OCCOC)c(OCCOC)cc23)c1 [erlotinib] (first compound 4 µM, partner dose 4 µM) | 34.9 | 63.5 | 104
N.N.[Cl][Pt][Cl] [cisplatin] + COc1cc(Nc2ncc(F)c(Nc3ccc4c(n3)NC(=O)C(C)(C)O4)n2)cc(OC)c1OC [Tamatinib] (first compound 8 µM, partner dose 2 µM) | 36.8 | 75.5 | 78.6
Cn1cc(C2=C(c3cn(C4CCN(Cc5ccccn5)CC4)c4ccccc34)C(=O)NC2=O)c2ccccc21 [Enzastaurin] + C[C@@H]1CCN(C(=O)CC#N)C[C@@H]1N(C)c1ncnc2[nH]ccc12 [CP690550] (first compound 4 µM, partner dose 5 µM) | 54.4 | 100 | 108
